# From paper PMC6919601, “Identification of Plasmodium dipeptidyl aminopeptidase allosteric inhibitors by high throughput screening” (PLoS ONE, 2019)
# In all, about 110,000 compounds went through this assay and about 230 (0.21%) showed an effect of 50% or more. Some of the results follow.
# Target: DPAP1 (Plasmodium falciparum, UniProt Q8IIJ9)
# Assay: primary screen, percent inhibition; read by cleavage of a fluorogenic dipeptide substrate; higher = more effect of the substance
# Set-up: species or system P. falciparum D10 trophozoite lysates; single well
# 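Note: 30 min substrate incubation versus DMSO and 10 µM JCP410 controls.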
# DPAP1, sequence (Q8IIJ9 whole entry, looked up): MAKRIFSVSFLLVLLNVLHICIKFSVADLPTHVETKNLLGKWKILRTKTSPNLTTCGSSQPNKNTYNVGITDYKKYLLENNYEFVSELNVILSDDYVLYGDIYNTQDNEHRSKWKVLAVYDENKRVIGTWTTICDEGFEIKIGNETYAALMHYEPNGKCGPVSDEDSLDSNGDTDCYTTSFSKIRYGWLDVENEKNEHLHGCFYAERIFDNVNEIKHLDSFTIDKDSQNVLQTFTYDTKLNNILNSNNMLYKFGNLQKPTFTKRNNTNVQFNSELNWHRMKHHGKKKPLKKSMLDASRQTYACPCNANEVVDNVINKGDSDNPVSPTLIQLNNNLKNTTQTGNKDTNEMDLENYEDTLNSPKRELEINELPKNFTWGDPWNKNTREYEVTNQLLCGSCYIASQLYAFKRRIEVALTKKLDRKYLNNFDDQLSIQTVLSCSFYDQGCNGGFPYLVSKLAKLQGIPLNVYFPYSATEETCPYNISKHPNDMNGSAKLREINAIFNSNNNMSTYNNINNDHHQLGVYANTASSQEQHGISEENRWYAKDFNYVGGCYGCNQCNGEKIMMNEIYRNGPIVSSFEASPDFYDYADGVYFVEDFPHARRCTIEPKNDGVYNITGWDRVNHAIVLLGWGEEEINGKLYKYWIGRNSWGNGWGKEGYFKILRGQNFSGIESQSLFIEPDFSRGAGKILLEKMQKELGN
row,Structure (SMILES),% Inhibition @ 10 uM [%]
1,NC(=O)c1cc(S(=O)(=O)Nc2cccc(F)c2)ccc1O,1.03
2,Cc1ccc(-n2nnc3c(=O)n(CC(=O)NCc4ccco4)cnc32)cc1,-0.431
3,N#CCNC(=O)[C@@H](Cc1ccc(C#N)cc1)NC(=O)OCc1ccccc1,-3.14
4,CNC(=O)C(C)n1nc(C)c2c(C)n(-c3ccccc3)nc2c1=O (stereo not drawn),-7.74
5,COc1cc2c(C(=O)NCc3ccccn3)cn(C)c(=O)c2cc1OC,37.9
6,CCOC(=O)N1CCN(C(=O)Cn2nc(C)c3sc4ccccc4c3c2=O)CC1,-5.78
7,COc1ccccc1N1CCN(C(=O)CN2C(=O)C3CCCCC3C2=O)CC1 (stereo not drawn),1.62
8,Cc1cccc(C(=O)OC[C@@H]2CCCN3CCCC[C@H]23)c1,-4.01
9,Cc1ccc(CNc2c(-c3ccc(C(C)C)cc3)c(=O)c2=O)cc1,0.589
10,Cc1ccc(S(=O)(=O)Nc2ccc(C(=O)Nc3ccncc3)cc2)cc1,-1.61
11,Cc1ccc(S(=O)(=O)N(CC(=O)NC2CC3CCC2C3)c2ccccc2F)cc1 (stereo not drawn),3.81
12,Cc1ccc(CN2C(=O)N/C(=C/c3ccsc3)C2=O)cc1,4.11
13,N#Cc1ccc(N2CCN(c3ccc(F)cc3)CC2)cc1,4.78
14,CC1=C(C#N)C(=O)NC(=O)/C1=C\c1ccc(-c2cc(Cl)cc(Cl)c2)o1,0.484
15,CCn1c(C(=O)NCCCc2ccccc2)cc2sc(Cl)cc21,0.0873
16,Nc1ccc(S(=O)(=O)NCCO)cc1,3.06
17,COc1cc2c(cc1OC)CN(C(=O)C(C)(C)C)CC2,-0.386
18,O=C(CCn1c(=O)c2cccn2c2cccnc21)N1CCN(C(=O)c2ccco2)CC1,-3.61
19,O=C(CCNS(=O)(=O)c1cccc2nsnc12)N1CCN(c2ccccn2)CC1,2.06
20,O=C(Cc1cccs1)N1CCN(c2cccc(Cl)c2)CC1,0.605
21,CCc1c(C)c2cc3c(C)c(C)oc3cc2oc1=O,-1.15
22,O=C(c1cc2c(s1)-c1ccccc1OC2)N1CCCN(Cc2ccccc2Cl)C1,-3.08
23,CCc1nnc(SC(CC)C(=O)NC2CCCC2)c2cc3oc(C)cc3n12 (stereo not drawn),0.616
24,CC(C)(C)c1ccc(N2C(=O)CCC2=O)cc1,0.147
25,O=S(=O)(Nc1ccccc1)c1cccc(S(=O)(=O)c2ccc(Cl)c(S(=O)(=O)Nc3ccccc3)c2)c1,3.25
26,O=C(Nc1ccncc1)c1ccc(COc2cc(Cl)ccc2Cl)cc1,0.413

row,Structure (SMILES),% Inhibition @ 10 uM [%]
1,COc1ccc(C(=O)Nc2ccc(F)cc2F)cc1Cl,-5.34
2,CCN(CC)C(=O)Cn1cc(SCC(=O)NCCOC)c2ccccc21,-4.63
3,Cc1ccc(CN2CCN(c3ccc(F)cc3)CC2)c(C)c1,4.81
4,Cn1c(C=O)nc2ccccc21,-0.339
5,O=C(NCc1ccc2c(c1)OCO2)c1nc(-c2cccc(F)c2)n2c1CCCCC2,2.19
6,COc1cc(C(=O)O)c(-n2cnnn2)cc1OC,-2.28
7,O=C(O)c1ccc(CNCCN2CCC(Cc3ccccc3)CC2)s1,-6.98
8,Cc1ccc(S(=O)(=O)CC(=O)c2ccc(C(C)(C)C)cc2)cc1,1.86
9,COc1ccc(OC)c(NC(=O)C2CCN(S(C)(=O)=O)CC2)c1,0.0504
10,Cc1nn(-c2ccccc2)c(-n2cccc2)c1C(=O)NCc1ccccn1,3.4
11,CCOC(=O)N1CCc2c(sc(NC(C)=O)c2C(=O)Nc2ccc(OC)cc2OC)C1,-0.116
12,O=c1[nH]c(=O)n(-c2ccccc2)c2c1C(C(F)(F)F)(C(F)(F)F)NC(c1ccncc1)=N2,-1.57
13,CCOc1ccc(CCNC(=O)c2cc(S(=O)(=O)N(C)C)c(Cl)cc2Cl)cc1OCC,2.7
14,NC1=C(c2nc3ccccc3[nH]2)C(=O)CN1CC1CCCO1 (stereo not drawn),0.486
15,Nc1c2cnnc-2nc(SCC(=O)c2ccc(Cl)cc2)n1-c1ccc(Br)cc1,1.42
16,CC(NC(=O)c1ccccc1)c1ccc(Cl)c(Cl)c1 (stereo not drawn),-7.02
17,CC1(C)CC(=O)C(C2(O)C(=O)c3ccccc3C2=O)C(=O)C1,-1.69
18,Cc1cc(O)c(C2=NCCSC(c3cccs3)C2)c(=O)o1 (stereo not drawn),4.16
19,CC(C)Oc1ccc(CNC(=O)CN2C(=O)C(c3ccccc3)Oc3cccnc32)cc1 (stereo not drawn),0.402
20,O=C(Cn1nc(-c2ccccc2)ccc1=O)NCc1ccc2c(c1)OCO2,-2.99
21,COc1ccc(C2NC(=O)c3ccccc3O2)cc1 (stereo not drawn),-4.61
22,CCOC(=O)c1cnc(SCC(=O)Nc2sc3c(c2C(=O)OCC)CCCC3)nc1N,0.558
23,Cc1cc(N2CCCC(CO)C2)nc2cc3c(cc12)OCO3 (stereo not drawn),1.84
24,CCOC(=O)c1c(C)[nH]c(C)c1S(=O)(=O)NCCCOC,-4.78
25,Nc1nc(-c2ccccc2)c(CC(=O)O)s1,2.31
26,CCOc1ccc(Cc2nn[nH]n2)cc1,1.51

row,Structure (SMILES),% Inhibition @ 10 uM [%]
1,COCCNC(=O)Cc1c(C)nc2c(-c3ccc(F)cc3)c(C)nn2c1C,0.953
2,COc1ccc(-c2noc(-c3nnn(-c4ccccc4C)c3N)n2)cc1,-3.01
3,CC1=C(C(=O)Nc2ccc(C)cc2)C(c2ccc(Cl)cc2Cl)NC(=O)N1C (stereo not drawn),-9.25
4,CCCC1=Nc2ncnn2C(c2cc(Br)ccc2OC)/C1=C(/O)OCC (stereo not drawn),1.53
5,CCCc1ccc(-c2ccc(F)c(N)c2)nc1,-3.38
6,Cc1cccc(CNC(=O)c2ccc(-c3nc(CS(=O)c4ccccc4)c(C)o3)cc2)c1 (stereo not drawn),1.31
7,COc1cccc(C(=O)c2c(N)c(-c3nc(-c4cc(OC)ccc4OC)cs3)c3ccccn23)c1,1
8,Cc1cc(C)c([N+](=O)[O-])c(C)c1/C=N/O,0.00178
9,O=C(NCc1ccco1)c1cc(-c2ccccc2)c(N2CCOCC2)s1,-1.03
10,Cc1cc(C)cc(-n2c(C)cc(C(=O)C(=O)NCc3ccccc3)c2C)c1,6.98
11,COc1ccc(S(=O)(=O)N2CCC(C(=O)Nc3ccc(C(F)(F)F)cc3)CC2)cc1,-3.97
12,N=C1S/C(=C\c2ccc(-c3cccc(Cl)c3)o2)C(=O)N1c1nccs1,6.02
13,Cc1ccc2n1CCn1cc(-c3ccc(Br)cc3)cc1-2,1.02
14,CCOC(=O)c1noc2c1CCc1sccc1-2,0.231
15,CCOC(=O)c1cnc2c(Cl)cccc2c1NCc1ccccc1,0.611
16,CC(C)(C)NC(=O)COc1ccc(CNCc2cccs2)cc1,2.48
17,CCOCCCNC(=O)Nc1nnc(N(C)Cc2ccccc2)s1,0.623
18,Fc1cccc(CCNC2CCN(Cc3ccccc3)CC2)c1,-0.0953
19,COc1ccc2c(c1)c1c(n2Cc2ccccc2)CCCC1,-4.35
20,CC(=O)N(C)c1ccc(NC(=O)[C@@H]2CCCC[C@@H]2C(=O)O)cc1,2.32
21,S=C(Nc1ccc(Cl)cc1)c1sc(N2CCOCC2)nc1N1CCOCC1,-5.32
22,CC(C)N(Cc1ccccc1)C(=O)C1=CCN(S(=O)(=O)c2ccc(F)cc2)CC1,0.137
23,COc1ccc(C(=O)Nc2cc(Cl)ccc2OC)cc1,-2.6
24,COc1cc(NC(=N)Nc2nc(O)c3c(n2)CCCC3)cc(OC)c1,-5.35
25,Cc1ccccc1CN1CCN(C(=O)C(c2ccccc2)c2ccccc2)CC1,0.611
26,CCN(CC)C(=O)Cn1c(=O)n(CC(=O)NCc2ccc(C)cc2)c(=O)c2sccc21,-3.77

row,Structure (SMILES),% Inhibition @ 10 uM [%]
1,COc1nc(OC)nc(N(C)CCO)n1,2.16
2,CCC/C(=N\C(C)C)C1=C(O)CC(C)(C)CC1=O,-5.07
3,CC(C)COC(=O)N[C@@H](CC1CCCCC1)C(=O)NCC#N,-3.49
4,CCOC(=O)C1CCN(Cc2cccnc2)CC1,-1.86
5,Cc1noc(C)c1S(=O)(=O)NCCc1ccc(Cl)cc1,2.02
6,CN1CCN(C(=O)CN2N=C(c3ccccc3)CCC2=O)CC1,5.35
7,Cc1n[nH]c(C)c1/N=C1\S/C(=C2\Sc3ccccc3N2C)C(=O)N1C,3.13
8,O=C(Nc1ccccc1F)c1ccc(Br)cc1,5.29
9,CCOc1cc(OCC)cc(C(=O)Nc2ccc(Br)c(C)n2)c1,-9.87
10,Cc1ccccc1-c1nc2ccccc2c(=O)n1C1CCS(=O)(=O)C1 (stereo not drawn),0.291
11,COc1ccc(-c2noc(-c3ccccc3C(=O)Nc3cccnc3)n2)cc1OC,-0.0108
12,N#CCc1nc(-c2ccccc2)cs1,-5.33
13,CC(=O)c1c(C)n(CC(=O)N2CCOCC2)c2ccccc12,0.032
14,O=C(CN1C(=O)S/C(=C\c2c[nH]c3ccc(Br)cc23)C1=O)N1CCCC1,-4.54
15,COc1cc(OC)c(CN2CCN(c3ccccc3)CC2)cc1Br,1.55
16,C=CCNCc1cccn1-c1sc2c(c1C#N)CCCC2,-5.96
17,COc1cc2nc3c(O)n(Cc4ccc(Cl)cc4)cnc-3c2cc1OC,-3.52
18,CC1CC(Nc2ccccc2)c2ccccc2N1C(=O)COc1ccccc1Cl (stereo not drawn),1.35
19,COc1ccc(/C=c2\sc3nc4cc(OC)c(OC)cc4c(=O)n3c2=O)cc1,5.42
20,COc1ccc(C2NC(S)=NC(C)=C2C(=O)Nc2ccc(Cl)cc2)cc1 (stereo not drawn),1.27
21,CC(C)c1ccccc1OCCCCCN1CCOCC1,3.86
22,CC1CC(=O)C2=C(C1)OC(N)=C(C#N)C2c1ccc(N(C)C)cc1 (stereo not drawn),3.54
23,COc1ccc(-c2cc(-c3ccccc3O)[nH]n2)cc1,1.57
24,COc1cccc(CNC(=O)c2nn(C)c3c2COc2ccccc2-3)c1,-1.72
